Test results from PubChem BioAssay AID1346428 (National Center for Advancing Translational Sciences (NCATS), 2018).
About 1,200 (2.5%) of roughly 48,000 compounds were called active. About 2% were inconclusive and are not listed.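 How the source made its calls: active means activation of at least 60% and not above a set upper limit (about 1 call in 100 departs from these limits); inconclusive means activation of 40% to 60%, or above that upper limit; inactive means activation under 40%.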 The list shows a part of the results.

molecular target: Probable G-protein coupled receptor 32 (Homo sapiens) (UniProt O75388); assay: qHTS for Agonists of Human Resolvin D1 Receptor DRV1; conditions: CHO-K1 GPR32 beta-arrestin PathHunter luminescence, 90 min; at 76.9 µM; active compounds read high; zero percent set by DMSO-only wells; further: 0% is about no effect
Method in brief: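 Cells are plated overnight, treated with compounds in DMSO for 90 minutes at 37 °C, and developed with PathHunter detection reagent for 1 hour before luminescence is read; signal reflects beta-arrestin binding to GPR32 in engineered CHO-K1 cells.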

UniProt O75388, sequence (O75388 whole entry, looked up): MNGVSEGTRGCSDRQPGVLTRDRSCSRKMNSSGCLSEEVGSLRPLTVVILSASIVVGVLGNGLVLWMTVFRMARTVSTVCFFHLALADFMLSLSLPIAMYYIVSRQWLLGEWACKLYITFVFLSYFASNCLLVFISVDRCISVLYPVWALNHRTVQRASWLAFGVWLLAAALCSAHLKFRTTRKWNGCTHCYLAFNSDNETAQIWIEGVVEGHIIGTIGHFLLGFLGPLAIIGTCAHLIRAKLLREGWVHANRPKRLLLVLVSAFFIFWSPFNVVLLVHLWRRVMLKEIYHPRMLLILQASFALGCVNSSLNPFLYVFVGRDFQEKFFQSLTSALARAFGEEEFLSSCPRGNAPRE

activation, inactive:
O=C(Cn1ncc2c3ccccc3n(Cc3ccc(F)cc3)c2c1=O)NCCC1=CCCCC1 -6.2%, Cc1nn(C(=O)c2ccc(Cl)cc2)c(C)c1S(=O)(=O)N1CCOCC1 16.4%, Cc1c(C(=O)Nc2ccc(C(C)C)cc2)sc2nc3n(c(=O)c12)CCC3 5.84%, CCC(CC)c1nn2c(=O)cc(COc3ccc(NC(=O)c4ccc(C)cc4)cc3)nc2s1 46.8%, Cc1ccc(CNc2ncnc3c2nnn3C)cc1 -4.97%, Cc1cn2c(=O)cc(COC(=O)c3cccc(NC(=O)c4ccccc4Cl)c3)nc2s1 -9.57%, CCc1ccc(CNC(=O)CN2C(=O)CSc3c2c(C)nn3-c2ccccc2)cc1 -25.7%, COc1ccc(NC(=O)CC2C(=O)N(c3cccc(C)c3)C(=O)N2Cc2cccnc2)cc1 (stereo not drawn) -2.78%, O=C(Nc1ccc(F)c(Cl)c1)N1CC=C(c2c[nH]c3ccccc23)CC1 -2.41%, CC(C)CCNC(=O)c1cc2cc(S(=O)(=O)N3CCCCC3)ccc2n1C 14.7%, Cn1c(=O)oc2cc(S(=O)(=O)N3CCCC(C(=O)NCc4ccc(F)cc4)C3)ccc21 (stereo not drawn) 12.7%, CCC(=O)N1c2ccccc2CC1C(=O)NCCc1ccccc1 (stereo not drawn) 7.12%, O=C(NC1CCN(CCc2c[nH]c3ccccc23)CC1)c1ccccc1 7.49%, O=C(NCCc1ccccc1Cl)c1sc2ncccc2c1-n1cccc1 1.35%, COc1cccc(Cn2nnc3c(=O)[nH]c(C4CCN(C(=O)c5ccccc5Cl)CC4)nc32)c1 -22.5%, Cc1ccc(N2CCN(C(=O)c3cnc(N4CCCCC4)c4ccccc34)CC2)c(C)c1 -44.4%, COc1ccc(CNC(=O)CCCN2C(=O)COc3ccc(C)cc32)cc1 -17.1%, CSc1ncc(Cl)c(C(=O)Nc2c(C(=O)Nc3cccc(Cl)c3)oc3ccccc23)n1 4.87%, CCC(=O)Nc1ccccc1-c1nc2ccccc2n(CC(=O)c2ccc(C)cc2)c1=O -1.86%, O=C(NCc1ccccc1Br)c1cnc2sc(N3CCCCCC3)nn2c1=O -7.3%, CC1=C(C(N)=O)C(c2ccccc2Br)n2ncnc2N1 (stereo not drawn) 8.51%, COc1cc(OC)c(NC(=O)CCCn2nc(C)c3c(C)n(-c4ccccc4)nc3c2=O)cc1Cl -10.7%, CCOC(=O)c1ccc(NC(=O)CSc2c3c(nc4cc(Cl)ccc24)CCCC3)cc1 -15.4%, COc1ccc(-n2nc(C(=O)N3CCCC(C)C3)c3c4ccccc4n(C)c3c2=O)cc1Cl (stereo not drawn) -8.47%, Cc1nn(C(=O)c2ccc(Cl)cc2)c(C)c1S(=O)(=O)N1CCCCCC1 18.5%, Cc1nn2c(C)c(C(=O)NCc3ccco3)cnc2c1-c1ccccc1 -19.7%, O=C(NC1CC(=O)N(c2ccccc2)C1)c1ccc(S(=O)(=O)N2CCCCC2)cc1 (stereo not drawn) -2.14%, CCN(CC)c1nc2ccccc2nc1C(=O)Nc1cc(OC)c(OC)c(OC)c1 -8.81%, Cc1ccc(N2CCn3c2nc2c3c(=O)n(CCCc3ccccc3)c(=O)n2C)cc1C -16.7%, CCOc1ccc(Cn2nnc(C(=O)Nc3cccc(SC)c3)c2N)cc1 -2.67%, Cc1nn(-c2ccc(F)cc2)c(-n2cccc2)c1C(=O)N1CCN(c2ccccc2)CC1 -4.65%, Cc1cc2nn(-c3ccccc3)nc2cc1NC(=O)COc1ccc(Cl)cc1 -4.6%, CC1CCC(NC(=O)CCc2cn(Cc3ccccc3Cl)c3ccccc23)CC1 (stereo not drawn) -29.1%, CCCN(CCC)C(=O)Cn1c(=O)n(-c2ccc(C)c(C)c2)c(=O)c2c3c(sc21)CCCCC3 -8.86%, Cc1cc(NC(=O)c2cc(-c3cccc(Cl)c3)on2)nn1Cc1ccc(Cl)cc1 3.05%, Cc1ccc(CN2C(=O)N(c3ccc(F)cc3)C(=O)C2CC(=O)Nc2ccc(Cl)cc2)cc1 (stereo not drawn) 4.32%, Cc1ncc(CO)c2c1Oc1nc(-c3ccc(F)cc3)nc(SCC(=O)N3CCCCC3)c1C2 -1.38%, O=C(NCCc1ccccc1)C1CCN(c2ncnc3c2nc2n3CCCCC2)CC1 -13.5%, COc1ccc(NC(=O)CSC2=Nc3ccccc3C3=NC(CCC(=O)NCc4cccs4)C(=O)N23)cc1 (stereo not drawn) -46%, Cc1ccc(C)c(Cn2c3ccccc3c3cnn(CC(=O)NC4CCC(C)CC4)c(=O)c32)c1 (stereo not drawn) -2.76%, COC(=O)CN1C(=O)CSc2ccc(S(=O)(=O)Nc3cccc(Br)c3)cc21 8.07%, Cc1ccc(NC(=O)CSc2nnc(-c3cc4occc4n3C)n2-c2ccccc2C)c(Cl)c1 -14.8%, CCOc1ccc(NC(=O)CSc2nc3c(oc4ccccc43)c(=O)n2-c2cc(C)cc(C)c2)cc1 -11%, CCCCOC(=O)/C(C#N)=C/c1ccc(-c2cccc(C(F)(F)F)c2)o1 -8.76%, CC1=C(C(=O)NCc2cccc(Br)c2)C2(CCCCC2)OC1=O 46.3%, CCOc1ccc(-c2nonc2NC(=O)c2ccco2)cc1 -8.95%, Cc1ccccc1CNC(=O)C1CCN(S(=O)(=O)Cc2ccccc2)CC1 -6.94%, COc1cc(/C=C/c2nc(C#N)c(N3CCCCC3)o2)cc(OC)c1OC -8.79%, Cc1ccc(C2c3[nH]c4ccccc4c3CCN2C(=O)c2ccccc2Br)cc1 (stereo not drawn) -30.8%, Cc1nnc(N2CCC(C(=O)Nc3ccc(F)cc3)CC2)c2nn(-c3ccc(Cl)cc3)c(C)c12 -28.1%, Cc1ccc(C(=O)Nc2c(-c3ccccc3)nc3ccccn23)cc1 -6.9%, CCCCOc1ccc(CNC(=O)Cc2ccc(NC(=O)N3CCCCc4ccccc43)cc2)cc1 -33.5%, COc1ccc(-c2nc(SCC(=O)N3CCN(c4ccc(F)cc4)CC3)n[nH]2)cc1 -13.6%, COc1ccc(CCNC(=O)c2ccc3c(c2)N(Cc2cc(C)ccc2C)C(=O)c2ccccc2S3=O)cc1OC (stereo not drawn) -16.3%, CCOC(=O)c1c(Nc2ccc(F)cc2)nnc(-c2ccccc2)c1-c1ccccc1 0.171%, CC(C)(C)OC(=O)N1CCC(c2c(C(=O)N3CCN(c4ccccc4)CC3)cnn2-c2ccccc2)CC1 -7.81%, CCn1c(=O)n(-c2ccc(F)cc2)c(=O)c2sc3ccccc3c21 -4.98%, Cc1cc(Br)ccc1NC(=O)Cn1cnc2sc(C)c(S(=O)(=O)N3CCN(C)CC3)c2c1=O -8.34%, COC(=O)c1sc2cccc(F)c2c1S(=O)(=O)Nc1ccc(N(C)C)cc1 22.4%, CCCN(C(=O)c1cc2ccc3cccnc3c2[nH]1)c1ccc(F)cc1 -17.1%, O=C(c1ccccc1Cl)N(Cc1ccco1)c1ccccn1 21%, CC(=O)N1CCC2(CC1)OC(=O)C(C)=C2C(=O)Nc1cc(C)ccc1C -10.2%, CCOC(=O)c1cc(-c2ccc(C)cc2)n(CC(=O)Nc2ccccc2F)c1C -1.4%, CC1=C(C(=O)O)N2C(=O)[C@@H](NC(=O)C(N)c3ccccc3)[C@H]2SC1 (stereo partly drawn) 3.49%, CC(=O)Nc1ccc(-n2c(CCC(=O)O)ccc2-c2ccc(Br)cc2)cc1 20.4%, COc1ccc(Cl)cc1NC(=O)Cn1c(=O)n(Cc2cccs2)c(=O)c2cccnc21 -3.62%, Cc1nc2cccnc2n1C1CCN(S(=O)(=O)N(C)C)CC1 4.95%, COc1ccc(CNC(=O)Cc2c(C)c3c(cc(C)c4c(C)coc43)oc2=O)cc1OC -12.7%, CCc1ccc(-c2[nH]nc3nc(-c4ccc(OC)cc4)cc(C(=O)NCCCOC)c23)cc1 -0.331%, COC(=O)c1ccccc1NC(=O)c1ccc(COc2cc(C)cc(C)c2)o1 -5.93%, COc1ccc(CCCc2nnc(SCC(=O)Nc3cc(C)ccc3C)o2)cc1 -0.262%, COc1ccc(Br)c2c1-c1nc(NC(=O)c3ccccc3F)sc1C2 12.2%, CCCC(=O)Nc1ccc(O)c(C(C)=O)c1 10.3%, Cc1nc2ccc(S(=O)(=O)N(CC(=O)Nc3cccc(Cl)c3)Cc3ccccc3)cc2s1 -23.1%, Cc1nn(CC(=O)NCc2ccc(N(C)C)cc2)c(=O)c2c(C)n(-c3ccc(Cl)cc3)nc12 -11.8%, CCOc1ccc(NC(=O)CCn2c(=O)c3cccn3c3cccnc32)cc1 -15.6%, CCCN(CCC)CCCNC(=O)c1cn(CC)c2ccc(S(=O)(=O)N(C)C3CCCCC3)cc2c1=O -38.6%, CCc1ccc(OCc2cc(=O)n3c4c(sc3n2)CCCC4)cc1 12.7%, Cc1cc(N)c2ccccc2[n+]1CCCCCCCCCC[n+]1c(C)cc(N)c2ccccc21 -14.3%, O=C(C1CCC1)N1CCCc2cc(S(=O)(=O)N3CCN(c4ccccc4)CC3)ccc21 -23.4%, COc1cccc(N2CCN(C(=O)C3Cc4ccccc4N3C(C)=O)CC2)c1 (stereo not drawn) 36.4%, CCOC(=O)N1CCc2c(sc(NCc3cccc(F)c3)c2C(=O)Nc2ccc(OC)cc2OC)C1 -11.6%, CCC(=O)Nc1ccccc1-c1nc2ccccc2n(CC(=O)c2ccc(Cl)cc2)c1=O -14.8%
